Experimental data taken from paper PMC6212790.
The other results are listed elsewhere or left out. At the low end of the ranking the order means little.

Biological target: T1, GST-Rok-C97-191 (UniProt O34857)
T1 sequence: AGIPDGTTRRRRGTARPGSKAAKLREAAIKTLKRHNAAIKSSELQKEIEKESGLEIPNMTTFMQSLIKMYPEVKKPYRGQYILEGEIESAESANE
Assay: protein binding microarray;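 also: rank score from −0.5 (least bound) to 0.5 (best bound)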
Conditions: Rok is a gene silencer of Bacillus subtilis; high values mean tight binding; most listed sequences are background and not binding sites; double strand, one strand shown

Sequence	binding signal
CGAAGTTA	0.116 E-score
ATCGGAGC	-0.131 E-score
ATTTACGA	0.278 E-score
CGTAGGAG	0.0119 E-score
ACGTGGCC	-0.242 E-score
ACCAAGCC	-0.0592 E-score
AGTGGTCG	-0.0917 E-score
GACCCGAC	-0.163 E-score
AAGGTAGA	0.246 E-score
CAACACAC	0.00589 E-score
ATTCCAGG	0.00459 E-score
CTCACACA	0.0247 E-score
GATGTGCC	-0.302 E-score
GATACTCA	0.122 E-score
GAGTCTTA	-0.0226 E-score
AGATTACC	-0.059 E-score
ACTTGTCG	-0.122 E-score
AATTGTGT	0.154 E-score
CCCACAAC	-0.186 E-score
ATTCATCG	-0.00932 E-score
CGACAGCC	0.0151 E-score
CTGTAATC	0.13 E-score
CACGTCCG	-0.355 E-score
GTGGACCA	-0.213 E-score
CTTCCGAA	-0.00825 E-score

Sequence	binding signal
GGCATAGA	-0.031 E-score
GTCGTACA	0.15 E-score
AGTTGCGA	0.0368 E-score
GACTTCTA	0.111 E-score
TCCGAACA	0.0669 E-score
ATCCTAGA	-0.156 E-score
AGCTGGTC	-0.0483 E-score
ACCGCGGA	-0.158 E-score
CGAAGACA	-0.146 E-score
AACAGGTG	0.0862 E-score
ACTATCTG	0.158 E-score
CCTTGGGC	-0.109 E-score
CCTGTCGA	-0.126 E-score
GCAAGGAA	-0.0861 E-score
TAGCATCA	-0.0379 E-score
GGCTTACA	-0.105 E-score
CCCCATCG	-0.208 E-score
ACTCCAAC	-0.227 E-score
ACTTGCTA	0.134 E-score
ACTGAGGA	-0.157 E-score
GTTCTCTA	0.219 E-score
CGGCACAA	-0.156 E-score
GCCGATCC	-0.185 E-score
ATCTGCTC	-0.194 E-score
AAAGTACT	0.224 E-score

Sequence	binding signal
ACTTGTCC	0.00953 E-score
TACAGGCA	-0.102 E-score
AACTTCAT	0.128 E-score
ACATGAGT	-0.0137 E-score
CCAATTAG	-0.111 E-score
AGTATCCA	0.0514 E-score
GACCATCA	-0.203 E-score
AAAAAGTT	0.203 E-score
CCTTTCAC	-0.131 E-score
ACTGATAG	0.0768 E-score
AAGCGCCG	-0.116 E-score
ATGCGGGA	0.0721 E-score
CTACGAGC	-0.077 E-score
TAAACAAA	0.0269 E-score
AACTCATC	0.0637 E-score
GCGGTACC	0.0121 E-score
ACGCGGAA	-0.0676 E-score
CGTCTAGC	-0.0248 E-score
AGGCATAG	-0.0417 E-score
CAGTGGTC	-0.19 E-score
AGAATTAG	0.155 E-score
TAACATGA	0.182 E-score
CATATGGA	0.0214 E-score
ATGGGCTC	-0.211 E-score
CCTTCGTA	-0.106 E-score

Sequence	binding signal
AAGAAATC	0.11 E-score
GTCGTCTA	-0.0652 E-score
GGATCATA	0.02 E-score
AATTTTTA	0.167 E-score
TAGCACCA	0.0273 E-score
CAGTTTGA	-0.112 E-score
CTGGTGAA	-0.119 E-score
AGTGCGTC	-0.0216 E-score
GGAGCGCC	-0.272 E-score
AAGCTGGT	-0.116 E-score
ATGATGTC	-0.157 E-score
CACTTGTC	-0.0379 E-score
AGTTCCCC	-0.0551 E-score
CCACATAA	0.167 E-score
ATCGAACA	-0.044 E-score
CCACCCGG	-0.155 E-score
TATGATCA	0.25 E-score
GCACCAGA	-0.154 E-score
AATACGAT	0.189 E-score
ACACCGCT	0.0322 E-score
CGAGTGGA	-0.0488 E-score
CTCGACGC	-0.2 E-score
GAGAGACC	-0.229 E-score
CAAGTAAG	0.0719 E-score
CCTAACGA	-0.114 E-score

Sequence	binding signal
AGGTGACC	-0.276 E-score
TCCTCAAA	-0.0783 E-score
ATCTTGAG	-0.0883 E-score
CTGTCTTA	0.0549 E-score
AAATGGGG	-0.1 E-score
AATAGGGC	-0.119 E-score
AGCCGGAC	-0.0198 E-score
CCAGGGCG	-0.33 E-score
GTCAAAAA	-0.175 E-score
AGTGCTGC	-0.289 E-score
AGAGGTAG	0.182 E-score
AAGTCTTA	0.0648 E-score
CACTGACC	-0.0382 E-score
AACTCCAC	0.00237 E-score
AACGATAC	0.075 E-score
CCTAGCTA	0.144 E-score
AGCCTAAT	-0.0187 E-score
ACTCTGTG	-0.072 E-score
CCATAATC	-0.0741 E-score
CGACCCAA	-0.0467 E-score
AACAACCC	0.0537 E-score
CCGAGGAC	-0.061 E-score
ATACTTGG	0.0891 E-score
AACTGGAC	-0.0284 E-score
GACAATGA	-0.0625 E-score

Sequence	binding signal
GCTTCCCC	-0.189 E-score
CTACCTAG	0.243 E-score
AAAGTAAG	0.12 E-score
GAAGCCAA	-0.0635 E-score
AGACGATC	-0.168 E-score
CCTACCAC	0.251 E-score
GACACCGA	-0.231 E-score
GAAAGAGA	-0.255 E-score
CGGGTAAG	-0.0992 E-score
GCGCCTAC	-0.00693 E-score
ATAAATAG	0.252 E-score
ATACAAAC	0.371 E-score
CAGGAGAA	0.0314 E-score
TTGACAAA	0.0348 E-score
AATAGCAG	0.0766 E-score
CAATGAGA	-0.17 E-score
ACCTGGAT	-0.0781 E-score
CAGCTCTC	-0.135 E-score
TATGACAA	-0.00238 E-score
AGACTAGA	0.199 E-score
CCTACAAG	0.0527 E-score
GTCCTCGA	-0.0981 E-score
CTGTGATA	0.197 E-score
AACTCCAT	0.107 E-score
GTCATGAA	-0.0595 E-score

Sequence	binding signal
ATCTTTAG	0.0903 E-score
GGGCATAC	-0.0596 E-score
CTGGACTA	0.118 E-score
CAGCTGCC	-0.308 E-score
ACATGCGA	0.00634 E-score
AACAGACG	-0.0272 E-score
CTACTGAC	0.181 E-score
AACGTCGA	0.0178 E-score
CGAAGAAA	0.193 E-score
ACCCCCAT	-0.134 E-score
AACCGACA	-0.091 E-score
CAAGCAGG	-0.2 E-score
ACGATCTA	0.136 E-score
CAAGGCGG	-0.26 E-score
ATAACTCG	0.208 E-score
CAGTTTGC	-0.134 E-score
AAAGGCCT	-0.284 E-score
ATCAGCGG	0.0188 E-score
CGGCCTGC	-0.324 E-score
CATCGAAG	-0.149 E-score
CTAGTGGC	-0.0357 E-score
CATACGGA	0.128 E-score
